The supplement of paper PMC11876631
± gives the standard deviation of the averaged measurements. Laboratory Escherichia coli strains with one amino-acid change in an essential protein, pooled on minimal glucose agar with carbenicillin or gentamicin at twice the control MIC (plus kanamycin and chloramphenicol for the plasmids), 48 h. Fold change of barcode share against drug-free plates; higher = less susceptible. Active = above 20 in both replicates (the paper's putatively resistant). '<' = one read or none on drug, '>' = one read or none on a drug-free plate. Shares are relative, so most strains fall below 1 when a few take over. Listed are strains with at least 15 reads on both drug-free plates, and hits; most hits rest on fewer reference reads. Replicate rank correlation about 0.5. Edits are read from barcodes.

Molecular target: Escherichia coli (laboratory strain)
Assay: barcode share on antibiotic plates over drug-free plates; higher = less susceptible
Description: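 A pool of E. coli strains, each edited to carry one amino-acid change in an essential protein, was grown for 48 h on minimal glucose agar with or without antibiotic; strain barcodes were sequenced; mean of two replicates.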

[1] = antibiotic: carbenicillin, 2× MIC (3.1 µg/mL)
[2] = antibiotic: gentamicin, 2× MIC (MIC 0.45 µg/mL)

Protein | fold change of barcode share [1] | fold change of barcode share [2]
dapB F76A (protein) MHDANIRVAIAGAGGRMGRQLIQAALALEGVQLGAALEREGSSLLGSDAGELAGAGKTGVTVQSSLDAVKDDFDVAIDFTRPEGTLNHLAFCRQHGKGMVIGTTGFDEAGKQAIRDAAADIAIVFAANFSVGVNVMLKLLEKAAKVMGDYTDIEIIEAHHRHKVDAPSGTALAMGEAIAHALDKDLKDCAVYSREGHTGERVPGTIGFATVRAGDIVGEHTAMFADIGERLEITHKASSRMTFANGAVRSALWLSGKESGLFDMRDVLDLNNL | 0.341 ± 0.23 | < 0.00813
dapB F76W (protein) MHDANIRVAIAGAGGRMGRQLIQAALALEGVQLGAALEREGSSLLGSDAGELAGAGKTGVTVQSSLDAVKDDFDVWIDFTRPEGTLNHLAFCRQHGKGMVIGTTGFDEAGKQAIRDAAADIAIVFAANFSVGVNVMLKLLEKAAKVMGDYTDIEIIEAHHRHKVDAPSGTALAMGEAIAHALDKDLKDCAVYSREGHTGERVPGTIGFATVRAGDIVGEHTAMFADIGERLEITHKASSRMTFANGAVRSALWLSGKESGLFDMRDVLDLNNL | 0.256 ± 0.055 | 0.00544 ± 0.0017
dapB F76Q (protein) MHDANIRVAIAGAGGRMGRQLIQAALALEGVQLGAALEREGSSLLGSDAGELAGAGKTGVTVQSSLDAVKDDFDVQIDFTRPEGTLNHLAFCRQHGKGMVIGTTGFDEAGKQAIRDAAADIAIVFAANFSVGVNVMLKLLEKAAKVMGDYTDIEIIEAHHRHKVDAPSGTALAMGEAIAHALDKDLKDCAVYSREGHTGERVPGTIGFATVRAGDIVGEHTAMFADIGERLEITHKASSRMTFANGAVRSALWLSGKESGLFDMRDVLDLNNL | 0.231 ± 0.13 | < 0.0148
dapB F76D (protein) MHDANIRVAIAGAGGRMGRQLIQAALALEGVQLGAALEREGSSLLGSDAGELAGAGKTGVTVQSSLDAVKDDFDVDIDFTRPEGTLNHLAFCRQHGKGMVIGTTGFDEAGKQAIRDAAADIAIVFAANFSVGVNVMLKLLEKAAKVMGDYTDIEIIEAHHRHKVDAPSGTALAMGEAIAHALDKDLKDCAVYSREGHTGERVPGTIGFATVRAGDIVGEHTAMFADIGERLEITHKASSRMTFANGAVRSALWLSGKESGLFDMRDVLDLNNL | 0.938 ± 0.018 | < 0.0105
dapA V40A (protein) MFTGSIVAIVTPMDEKGNVCRASLKKLIDYHVASGTSAIASVGTTGESATLNHDEHADVVMMTLDLADGRIPVIAGTGANATAEAISLTQRFNDSGIVGCLTVTPYYNRPSQEGLYQHFKAIAEHTDLPQILYNVPSRTGCDLLPETVGRLAKVKNIIGIKEATGNLTRVNQIKELVSDDFVLLSGDDASALDFMQLGGHGVISVTANVAARDMAQMCKLAAEGHFAEARVINQRLMPLHNKLFVEPNPIPVKWACKELGLVATDTLRLPMTPITDSGRETVRAALKHAGLL | 0.2268 ± 0.0017 | 0.00927 ± 0.0041
dapA I203A (protein) MFTGSIVAIVTPMDEKGNVCRASLKKLIDYHVASGTSAIVSVGTTGESATLNHDEHADVVMMTLDLADGRIPVIAGTGANATAEAISLTQRFNDSGIVGCLTVTPYYNRPSQEGLYQHFKAIAEHTDLPQILYNVPSRTGCDLLPETVGRLAKVKNIIGIKEATGNLTRVNQIKELVSDDFVLLSGDDASALDFMQLGGHGVASVTANVAARDMAQMCKLAAEGHFAEARVINQRLMPLHNKLFVEPNPIPVKWACKELGLVATDTLRLPMTPITDSGRETVRAALKHAGLL | 0.307 ± 0.035 | 0.00683 ± 0.0042
dapA V60Q (protein) MFTGSIVAIVTPMDEKGNVCRASLKKLIDYHVASGTSAIVSVGTTGESATLNHDEHADVQMMTLDLADGRIPVIAGTGANATAEAISLTQRFNDSGIVGCLTVTPYYNRPSQEGLYQHFKAIAEHTDLPQILYNVPSRTGCDLLPETVGRLAKVKNIIGIKEATGNLTRVNQIKELVSDDFVLLSGDDASALDFMQLGGHGVISVTANVAARDMAQMCKLAAEGHFAEARVINQRLMPLHNKLFVEPNPIPVKWACKELGLVATDTLRLPMTPITDSGRETVRAALKHAGLL | 0.509 ± 0.21 | < 0.00431
dapA V40D (protein) MFTGSIVAIVTPMDEKGNVCRASLKKLIDYHVASGTSAIDSVGTTGESATLNHDEHADVVMMTLDLADGRIPVIAGTGANATAEAISLTQRFNDSGIVGCLTVTPYYNRPSQEGLYQHFKAIAEHTDLPQILYNVPSRTGCDLLPETVGRLAKVKNIIGIKEATGNLTRVNQIKELVSDDFVLLSGDDASALDFMQLGGHGVISVTANVAARDMAQMCKLAAEGHFAEARVINQRLMPLHNKLFVEPNPIPVKWACKELGLVATDTLRLPMTPITDSGRETVRAALKHAGLL | 0.328 ± 0.052 | < 0.0101
dapA V60A (protein) MFTGSIVAIVTPMDEKGNVCRASLKKLIDYHVASGTSAIVSVGTTGESATLNHDEHADVAMMTLDLADGRIPVIAGTGANATAEAISLTQRFNDSGIVGCLTVTPYYNRPSQEGLYQHFKAIAEHTDLPQILYNVPSRTGCDLLPETVGRLAKVKNIIGIKEATGNLTRVNQIKELVSDDFVLLSGDDASALDFMQLGGHGVISVTANVAARDMAQMCKLAAEGHFAEARVINQRLMPLHNKLFVEPNPIPVKWACKELGLVATDTLRLPMTPITDSGRETVRAALKHAGLL | 0.305 ± 0.049 | < 0.00483
dapA V60P (protein) MFTGSIVAIVTPMDEKGNVCRASLKKLIDYHVASGTSAIVSVGTTGESATLNHDEHADVPMMTLDLADGRIPVIAGTGANATAEAISLTQRFNDSGIVGCLTVTPYYNRPSQEGLYQHFKAIAEHTDLPQILYNVPSRTGCDLLPETVGRLAKVKNIIGIKEATGNLTRVNQIKELVSDDFVLLSGDDASALDFMQLGGHGVISVTANVAARDMAQMCKLAAEGHFAEARVINQRLMPLHNKLFVEPNPIPVKWACKELGLVATDTLRLPMTPITDSGRETVRAALKHAGLL | 0.362 ± 0.069 | < 0.00464
dapA L101Q (protein) MFTGSIVAIVTPMDEKGNVCRASLKKLIDYHVASGTSAIVSVGTTGESATLNHDEHADVVMMTLDLADGRIPVIAGTGANATAEAISLTQRFNDSGIVGCQTVTPYYNRPSQEGLYQHFKAIAEHTDLPQILYNVPSRTGCDLLPETVGRLAKVKNIIGIKEATGNLTRVNQIKELVSDDFVLLSGDDASALDFMQLGGHGVISVTANVAARDMAQMCKLAAEGHFAEARVINQRLMPLHNKLFVEPNPIPVKWACKELGLVATDTLRLPMTPITDSGRETVRAALKHAGLL | > 40 [active] | –
cysS L384A (protein) MLKIFNTLTRQKEEFKPIHAGEVGMYVCGITVYDLCHIGHGRTFVAFDVVARYLRFLGYKLKYVRNITDIDDKIIKRANENGESFVAMVDRMIAEMHKDFDALNILRPDMEPRATHHIAEIIELTEQLIAKGHAYVADNGDVMFDVPTDPTYGVLSRQDLDQLQAGARVDVVDDKRNPMDFVLWKMSKEGEPSWPSPWGAGRPGWHIECSAMNCKQLGNHFDIHGGGSDLMFPHHENEIAQSTCAHDGQYVNYWMHSGMVMVDREKMSKSLGNFFTVRDVLKYYDAETVRYFLMSGHYRSQLNYSEENLKQARAALERLYTALRGTDKTVAPAGGEAFEARFIEAMDDDFNTPEAYSVLFDMAREVNRLKAEDMAAANAMASHARKLSAVLGLLEQEPEAFLQSGAQADDSEVAEIEALIQQRLDARKAKDWAAADAARDRLNEMGIVLEDGPQGTTWRRK | 0.222 ± 0.093 | < 0.0128
cysS V45A (protein) MLKIFNTLTRQKEEFKPIHAGEVGMYVCGITVYDLCHIGHGRTFAAFDVVARYLRFLGYKLKYVRNITDIDDKIIKRANENGESFVAMVDRMIAEMHKDFDALNILRPDMEPRATHHIAEIIELTEQLIAKGHAYVADNGDVMFDVPTDPTYGVLSRQDLDQLQAGARVDVVDDKRNPMDFVLWKMSKEGEPSWPSPWGAGRPGWHIECSAMNCKQLGNHFDIHGGGSDLMFPHHENEIAQSTCAHDGQYVNYWMHSGMVMVDREKMSKSLGNFFTVRDVLKYYDAETVRYFLMSGHYRSQLNYSEENLKQARAALERLYTALRGTDKTVAPAGGEAFEARFIEAMDDDFNTPEAYSVLFDMAREVNRLKAEDMAAANAMASHLRKLSAVLGLLEQEPEAFLQSGAQADDSEVAEIEALIQQRLDARKAKDWAAADAARDRLNEMGIVLEDGPQGTTWRRK | 0.629 ± 0.11 | 0.0056 ± 0.0062
cysS V45Q (protein) MLKIFNTLTRQKEEFKPIHAGEVGMYVCGITVYDLCHIGHGRTFQAFDVVARYLRFLGYKLKYVRNITDIDDKIIKRANENGESFVAMVDRMIAEMHKDFDALNILRPDMEPRATHHIAEIIELTEQLIAKGHAYVADNGDVMFDVPTDPTYGVLSRQDLDQLQAGARVDVVDDKRNPMDFVLWKMSKEGEPSWPSPWGAGRPGWHIECSAMNCKQLGNHFDIHGGGSDLMFPHHENEIAQSTCAHDGQYVNYWMHSGMVMVDREKMSKSLGNFFTVRDVLKYYDAETVRYFLMSGHYRSQLNYSEENLKQARAALERLYTALRGTDKTVAPAGGEAFEARFIEAMDDDFNTPEAYSVLFDMAREVNRLKAEDMAAANAMASHLRKLSAVLGLLEQEPEAFLQSGAQADDSEVAEIEALIQQRLDARKAKDWAAADAARDRLNEMGIVLEDGPQGTTWRRK | 0.767 ± 0.29 | –
